PMC12136788
The list shows a part of the results.

B1: chr1:113764432:113764533:-|3pUTR|ENSG00000081019|msi1|FALSE|bound_elsewhere (ssRNA)
RNA: GGGAGUUCUACAGUCCGACGAUCAAAAUAUUCUGAAAUAGGUUAAAUCUUAUAUAAAUAUUACUUUGUGCAAUAUUGUUGUGUAGUUAAAUGCAUAUUAGCAAAGUAUAGAGGUCACUGUGUAAACCGAUAGAAAAGUAACCACAACAGAGGAUUGAGCAUCA
B2: chr22:36488912:36489013:-|3pUTR|ENSG00000100350|msi1|total|mutant (ssRNA)
RNA: GGGAGUUCUACAGUCCGACGAUCCCCGUCUCUUCUUCAUUGCCCUUCCUCACCAGCAAUCUGCACUUUCCCAUCAGGCGUCUCCGUCUCAUUUGUAAGUGCAUAAGAUAAUCACAGUGAUUUUUCAAAGCCCAGGAUCAUAAGCAACAGAGGAUUGAGCAUCA
B3: chr2:1633339:1633490:-|3pUTR|ENSG00000130508|msi1|FALSE|unique (ssRNA)
RNA: GGGAGUUCUACAGUCCGACGAUCUUCAUAAGCCACAUUUAGAAACAGGUUUGCUUUCAGCUGUCACUUGCACACAUACUGCCUAGUUGUGAACCAAAUGUGAAAAAACCUCCUUCAUCCCAUUGUGUAUCUGAUACCUGCCGACAACAGAGGAUUGAGCAUCA
B4: chr10:62807900:62808002:+|3pUTR|ENSG00000181915|unk|FALSE|unique (ssRNA)
RNA: GGGAGUUCUACAGUCCGACGAUCCAAAAAGUUGAUUAGCUUACCAAGAUUAUUAAUAGCAAUGUAUGUGUUAUAAUACAACUUAGUACAUUAAAGCUACGAAAACUCAUCCUGGCUGUAGGAUAGUAAUAAAGGAAGAAUUAUCAACAGAGGAUUGAGCAUCA
B5: chr1:214663888:214664008:+|3pUTR|ENSG00000117724|msi1|FALSE|bound_elsewhere (ssRNA)
RNA: GGGAGUUCUACAGUCCGACGAUCAGGAGAAAACAAUUCCUUAGAAGUCUUAAAUAUAUUGUACUCUUUAGAUCUCCCAUGUGUAGGUAUUGAAAAAGUUUGGAAGCACUGAUCACCUGUUAGCAUUGCCAUUCCUCUACUGCACAACAGAGGAUUGAGCAUCA
B6: chr9:91409354:91409467:-|CDS|ENSG00000165030|unk|total|mutant (ssRNA)
RNA: GGGAGUUCUACAGUCCGACGAUCAAUGAAAGACAGUGGCUACAAAGUUUCUGACCCAGAGAACUUGUAUUUGAAGCAGGGGACCGCAAACUUAUCUGCAGAGGUUGUCUCACUCAAGAGACUUACCGCCACACAACCAAUCUCCAACAGAGGAUUGAGCAUCA
B7: chr14:22589090:22589186:-|5pUTR_CDS|ENSG00000129562|msi1_unk|total|mutant (ssRNA)
RNA: GGGAGUUCUACAGUCCGACGAUCUCCUCCAAGAGUUUGGGGCGCGGACCGGAGUACCUUGCGUGCAGUUAUGUCGGCGUCGGCCGUGUCUGUCAUUUCGCGGUUCUCCGAAGAGUACUUGAGCUCCACUCCGCAGCGUCUGAACAACAGAGGAUUGAGCAUCA
B8: chr4:56461171:56461272:+|3pUTR|ENSG00000128050|msi1|total|mutant (ssRNA)
RNA: GGGAGUUCUACAGUCCGACGAUCCUUCUGUAACCACAGUGACUACAAGCCGUUCUUUCUCUAUUGAAUUAUCCGGUCCAGAACCGAAGAUGUCAUUGUACACUUUAUUUCCCUCACACUGUGUUAUGCUCUGAUGUGCUAUGCCAACAGAGGAUUGAGCAUCA
B9: ENSG00000122863:stop:overlap|stop_codon|ENSG00000122863|stop_codon|NA|stop_codon (ssRNA)
RNA: GGGAGUUCUACAGUCCGACGAUCCCGCCCUCACCAACCGCUCAGUCAGCCUGCUGGAGGAGAGGGGCACCUUCUGGGUCACGUAGGGGGGCCGGGGCCCCGUAUGCCCCUCCUCGUGAAAGGCCUGCCCCGUCUUUCUGCCGCCAACAGAGGAUUGAGCAUCA
B10: chr15:77046177:77046188:-|3pUTR|ENSG00000140391|msi1_unk|total|mutant (ssRNA)
RNA: GGGAGUUCUACAGUCCGACGAUCUUAAUCAAAGUUGGCUUUACCGGAGGAGUAUAAUGUAUGCACUACUGUUUUAAAAGAAUCCGUGUGAGUGUGUUUUUGUAUGAAUGAGCCCAUUCAUGGUAAGUCUUAAGCUUGUUGGAACAACAGAGGAUUGAGCAUCA
B11: chr2:37256661:37256929:-|CDS|ENSG00000115825|control|control|control (ssRNA)
RNA: GGGAGUUCUACAGUCCGACGAUCAGGAACUCCAGCAUACUUAGCCCCUGAAGUUCUCCGGAGCAAAGGUUACAACCGUUCCCUAGAUAUGUGGUCAGUGGGAGUUAUCAUCUAUGUGAGCCUCAGUGGCACAUUUCCUUUUAACAACAGAGGAUUGAGCAUCA
B12: ENSG00000078043:stop:overlap|stop_codon|ENSG00000078043|stop_codon|NA|stop_codon (ssRNA)
RNA: GGGAGUUCUACAGUCCGACGAUCGGAAAUGCAUCUUUAUGUCAGAAACACAAAGCAGCCCAACCAAAGGGUUUGUUAAUUUAUAGUUCACUAUUGUUCAUUACCCUUGCAACUAAUUGCUCUUGGAUAGAUUUAUAAAUGUCUCAACAGAGGAUUGAGCAUCA
B13: chr7:139045324:139045425:-|3pUTR|ENSG00000105939|msi1|FALSE|bound_elsewhere (ssRNA)
RNA: GGGAGUUCUACAGUCCGACGAUCAGUUCAAAACCGCUGUCAUGGCCCCAUGUGAUCUCUCCCUCCCCUACCCCUCUAUCAUUUAGUUUCUUCUGCGCAAGCCACUCUGGCUUCCUUUCAGUUUUGUGGUUCCCAUUUUUAGCUCAACAGAGGAUUGAGCAUCA
B14: ENSG00000198589:be:win_9301|3pUTR|ENSG00000198589|bound_else_gene|NA|bound_elsewhere_windowed (ssRNA)
RNA: GGGAGUUCUACAGUCCGACGAUCAGUACCAAAGCUCACUACUGCGGUUUGCCUGUGCCUGGACAAUGAGGCGGAGCCACUGUUGUUUUGUUGGGGCACCCCCUUCCCUCCCCGGGUUUGCAAAUAGAGGCUACCGGGUGCUGUCAACAGAGGAUUGAGCAUCA
B15: ENSG00000107863:be:win_5851|CDS_3pUTR|ENSG00000107863|bound_else_gene|NA|bound_elsewhere_windowed (ssRNA)
RNA: GGGAGUUCUACAGUCCGACGAUCAAAGCAGAGUUUCAUCCCUGUCUUUAAACUGGGGGUAUGUCCACUCUAGCAAGUAAAAAAACUACUGUUACACGUUCCAGUAACUCUGUCAAUAUUUUCUUGUAUCAGAAUUGUUAUUAUCAACAGAGGAUUGAGCAUCA
B16: chr5:133074000:133074114:+|CDS|ENSG00000170606|unk|FALSE|unique (ssRNA)
RNA: GGGAGUUCUACAGUCCGACGAUCUCUUGCAUAUGGAAUCUAUAAGCAGGAUCUUCCUGCCUUAGAAGAGAAACCAAGAAAUGUAGUUUUUGUAGACAUGGGCCACUCUGCUUAUCAAGUUUCUGUAUGUGCAUUUAAUAGAGGCAACAGAGGAUUGAGCAUCA
B17: chr19:57593639:57593745:+|3pUTR|ENSG00000171649|unk|total|mutant (ssRNA)
RNA: GGGAGUUCUACAGUCCGACGAUCUGAACCUUCUUAUUUCUCUACAUUCUUGCCAUACUUGGUAUGGUCCGUCUUUUUAAUUUCCGUUGUUUUAACCGCUGUAUAACCGCAUCUGUCUGUGAUUUUAUUGCAUUUUUCUGGUAUCAACAGAGGAUUGAGCAUCA
B18: chrX:119243754:119243940:+|3pUTR|ENSG00000101856|msi1|FALSE|unique (ssRNA)
RNA: GGGAGUUCUACAGUCCGACGAUCAGCUGCAAAAAAGCAUAUUUUCUGUGUUUCUGGACUGCACUGUUGUCCUUGCCCUCACAUAGACACUCAGACACCCUCACAAACACAGUAGUCUAUAGUUAGGAUUAAAAUAGGAUCUGACAACAGAGGAUUGAGCAUCA
B19: chr2:205796522:205796663:+|3pUTR|ENSG00000118257|msi1|FALSE|unique (ssRNA)
RNA: GGGAGUUCUACAGUCCGACGAUCGUUUUUAUUAAGUGCCUUGAAAAAAUGAAGAAAAAUGUAUUUUCCCUUUAUGUAAAAAUUAGUGAAUAUCUUAUGAAUUAAGGCAUUCCUCUUUCCCUAACCCCGAUGGCUCCAUUCCCACAACAGAGGAUUGAGCAUCA
B20: chr20:3933335:3933436:-|3pUTR|ENSG00000101236|msi1|total|mutant (ssRNA)
RNA: GGGAGUUCUACAGUCCGACGAUCUUACAACACCUGCUAUCAAAUCAUCUAAGCUGAAAACAUGAGAUGCGCUUGGAAAGGCCCCGUCAGAAGCCAUUUCCUCUUAUCAUUUCCCUCUCCUAUGCACCAGUAAGGCCCGUCCAGCAACAGAGGAUUGAGCAUCA
B21: ENSG00000198589:be:win_7001|CDS|ENSG00000198589|bound_else_gene|NA|bound_elsewhere_windowed (ssRNA)
RNA: GGGAGUUCUACAGUCCGACGAUCGAGCUUGGCGAAACAGUCAGCGUGAUACCUCUGAUAUUAAGGAGUUGAUCCCUGAAUUUUAUUAUCUCCCUGAGAUGUUUGUCAACUUCAAUAAUUAUAAUCUUGGAGUGAUGGAUGAUGCAACAGAGGAUUGAGCAUCA
B22: chr4:4235611:4235720:-|3pUTR|ENSG00000132406|unk|FALSE|unique (ssRNA)
RNA: GGGAGUUCUACAGUCCGACGAUCAUGAUAGUUUUGUUAGGUGACAGGACCAAAUGAAAAUAUUUUAUGUUUUCUCAUCACUUUAGAUUUUAUCAUUAUGUACAUUACUGGGUUUUUAGCAUUUCCUAAUGUGAAGUUUUAAUCCAACAGAGGAUUGAGCAUCA
B23: chr6:30110447:30110678:-|CDS|ENSG00000204616|control|control|control (ssRNA)
RNA: GGGAGUUCUACAGUCCGACGAUCCCAGGUAGAACAUGAGAAGCAAAGGAUCCUCACAGAAUUUGAACUCCUGCAUCAAGUCCUAGAGGAGGAGAAGAAUUUCCUGCUAUCACGGAUUUACUGGCUGGGUCAUGAGGGAACGGACAACAGAGGAUUGAGCAUCA
B24: chr1:229632307:229632408:+|CDS|ENSG00000135763|unk|FALSE|bound_elsewhere (ssRNA)
RNA: GGGAGUUCUACAGUCCGACGAUCAUUUUAUAAGAAAAAGCUUGAACUGAAGGAAGAUAUUGUUGAAAGGCUUUGGAUCUAUAUAGAUAACAUUUUACAUAGCAGAAAAUUGCAGAAUCUCCUCAAGAAUGGAAAGACCAUUAACAACAGAGGAUUGAGCAUCA
B25: chr19:35513049:35513475:-|CDS|ENSG00000161249|control|control|control (ssRNA)
RNA: GGGAGUUCUACAGUCCGACGAUCUGGCCAAGGGACCAGAGAAGCAGUUGGCACUGGAGUCAGGCAGGUUCCAGGCUUUGGCGUAGCAGAUGCUUUGGGCAACAGGGUCGGGGAAGCAGCCCAUGCUCUGGGAAACACUGGGCACAACAGAGGAUUGAGCAUCA
B26: chr3:120327094:120327202:-|3pUTR|ENSG00000163428|unk|FALSE|unique (ssRNA)
RNA: GGGAGUUCUACAGUCCGACGAUCGAAGAGAAGUCACCAAACACCUAGGGACAGUCCUAGGCCUAGAAAGCCCUUUAAAGUAAUAGUGAAUUGUUUUAAAAUUAAGUUAUUGAGUGGCCUACUGACUACCAUCCAAAAACCUUUCAACAGAGGAUUGAGCAUCA
B27: chr8:37846853:37847175:-|CDS|ENSG00000104221|control|control|control (ssRNA)
RNA: GGGAGUUCUACAGUCCGACGAUCGGCCAUCUGCACGCUGUUGUAUGCAGAUUUGGAUGUGUUUUCUAGCACUUACAUGCAGAUAGUGAAGCUCCUGGGACUGGAUGUGCCAUCUCUGUGCUUGGCAGAACUGGUGAAGACCUACAACAGAGGAUUGAGCAUCA

molecular target: T1, UNK ZnF1-6 (called full-length) (human, UniProt Q9C0B0 30-357); assay: nsRBNS (natural sequence RNA bind-n-seq); RBNS binding buffer (assumed for nsRBNS): 25 mM Tris pH 7.5, 150 mM KCl, 3 mM MgCl2, 0.01% Triton X-100, 500 ug/ml BSA, 20 U/ml SUPERase-In, 4 C; UNK is unkempt and MSI1 is Musashi-1; names of the RNAs are library labels; protein concentration not given here; high values mean tight binding
T1 sequence: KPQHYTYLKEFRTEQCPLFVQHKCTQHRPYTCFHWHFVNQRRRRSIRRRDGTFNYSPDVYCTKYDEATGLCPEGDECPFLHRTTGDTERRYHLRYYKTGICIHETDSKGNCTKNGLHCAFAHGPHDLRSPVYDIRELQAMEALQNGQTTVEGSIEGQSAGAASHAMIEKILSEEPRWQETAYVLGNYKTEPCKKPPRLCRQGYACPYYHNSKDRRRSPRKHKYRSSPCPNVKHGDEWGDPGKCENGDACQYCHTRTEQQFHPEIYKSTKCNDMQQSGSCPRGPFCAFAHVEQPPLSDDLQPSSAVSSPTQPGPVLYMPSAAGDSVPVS

Row | Binder | binding signal [enrichment R]
1 | B1 | 6.21
2 | B2 | 0.527
3 | B3 | 0.335
4 | B4 | 1.16
5 | B5 | 4.99
6 | B6 | 0.615
7 | B7 | 0.537
8 | B8 | 0.296
9 | B9 | 0.708
10 | B10 | 0.359
11 | B11 | 0.849
12 | B12 | 1.63
13 | B13 | 6.61
14 | B14 | 1.64
15 | B15 | 0.426
16 | B16 | 0.465
17 | B17 | 1.21
18 | B18 | 2.76
19 | B19 | 1.12
20 | B20 | 0.525
21 | B21 | 0.435
22 | B22 | 2.36
23 | B23 | 1.06
24 | B24 | 2.37
25 | B25 | 1.16
26 | B26 | 3.46
27 | B27 | 0.513
